Laboratory results from article PMC8673607, “ENAP1 retrains seed germination via H3K9 acetylation mediated positive feedback regulation of ABI5” (PLoS Genetics, 2021).
Results are given in words; binding and its absence hold for the method and conditions named. For some of these results: Binding seen in cells or lysates may run through a third protein. Some binding calls cover weakened binding; strength is not graded here. Sequences can lack the tags named with a protein.

T1: BD-ABI5 (Arabidopsis) (UniProt Q9SJN0)
T1 sequence: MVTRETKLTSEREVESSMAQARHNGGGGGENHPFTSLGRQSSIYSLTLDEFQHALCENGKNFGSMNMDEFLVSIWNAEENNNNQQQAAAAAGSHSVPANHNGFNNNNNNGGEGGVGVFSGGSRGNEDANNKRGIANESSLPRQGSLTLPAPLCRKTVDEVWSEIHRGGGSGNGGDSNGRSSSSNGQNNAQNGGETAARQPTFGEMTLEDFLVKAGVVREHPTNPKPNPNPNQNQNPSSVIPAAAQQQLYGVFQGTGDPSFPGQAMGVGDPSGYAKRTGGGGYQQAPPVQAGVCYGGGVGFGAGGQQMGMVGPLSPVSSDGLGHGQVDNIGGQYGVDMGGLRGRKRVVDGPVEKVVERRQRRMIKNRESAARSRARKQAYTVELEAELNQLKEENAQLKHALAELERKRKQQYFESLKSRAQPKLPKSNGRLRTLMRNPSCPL

T2: ABI5 fused with the N-terminus of Venus YFP (pDEST-VYNE) (Arabidopsis) (UniProt Q9SJN0)
T2 sequence: T1 sequence

T3: ABI5 (endogenous) (Arabidopsis (endogenous in seeds)) (UniProt Q9SJN0)
T3 sequence: T1 sequence

T4: ENAP1 (two-hybrid construct tested against the ABFs, S3 Fig) (Arabidopsis) (UniProt Q8VZI9)
T4 sequence: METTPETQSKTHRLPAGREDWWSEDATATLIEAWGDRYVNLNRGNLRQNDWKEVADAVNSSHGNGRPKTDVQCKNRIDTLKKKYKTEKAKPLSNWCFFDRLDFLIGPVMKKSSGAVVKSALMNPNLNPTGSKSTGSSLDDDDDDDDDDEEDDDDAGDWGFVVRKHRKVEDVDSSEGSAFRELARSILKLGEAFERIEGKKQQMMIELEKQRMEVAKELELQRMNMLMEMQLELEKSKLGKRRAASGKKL

B1: AD-ENAP1 (protein, UniProt Q8VZI9 1-249)
chain: T4 sequence
B2: ENAP1 fused with the C-terminus of Venus YFP (pDEST-VYCE) (protein, UniProt Q8VZI9 1-249)
chain: T4 sequence
B3: ENAP1:YFP:HA (35S::ENAP1:YFP:HA, ENAP1ox) (protein, UniProt Q8VZI9 1-249)
chain: T4 sequence
B4: ABF1 (AD vector) (protein, UniProt Q9M7Q5 1-392)
chain: MGTHIDINNLGGDTSRGNESKPLARQSSLYSLTFDELQSTLGEPGKDFGSMNMDELLKNIWTAEDTQAFMTTTSSVAAPGPSGFVPGGNGLQRQGSLTLPRTLSQKTVDEVWKYLNSKEGSNGNTGTDALERQQTLGEMTLEDFLLRAGVVKEDNTQQNENSSSGFYANNGAAGLEFGFGQPNQNSISFNGNNSSMIMNQAPGLGLKVGGTMQQQQQPHQQQLQQPHQRLPPTIFPKQANVTFAAPVNMVNRGLFETSADGPANSNMGGAGGTVTATSPGTSSAENNTWSSPVPYVFGRGRRSNTGLEKVVERRQKRMIKNRESAARSRARKQAYTLELEAEIESLKLVNQDLQKKQAEIMKTHNSELKEFSKQPPLLAKRQCLRRTLTGPW
B5: ABF2 (AD vector) (protein, UniProt Q9M7Q4 1-416)
chain: MDGSMNLGNEPPGDGGGGGGLTRQGSIYSLTFDEFQSSVGKDFGSMNMDELLKNIWSAEETQAMASGVVPVLGGGQEGLQLQRQGSLTLPRTLSQKTVDQVWKDLSKVGSSGVGGSNLSQVAQAQSQSQSQRQQTLGEVTLEEFLVRAGVVREEAQVAARAQIAENNKGGYFGNDANTGFSVEFQQPSPRVVAAGVMGNLGAETANSLQVQGSSLPLNVNGARTTYQQSQQQQPIMPKQPGFGYGTQMGQLNSPGIRGGGLVGLGDQSLTNNVGFVQGASAAIPGALGVGAVSPVTPLSSEGIGKSNGDSSSLSPSPYMFNGGVRGRKSGTVEKVVERRQRRMIKNRESAARSRARKQAYTVELEAEVAKLKEENDELQRKQARIMEMQKNQETEMRNLLQGGPKKKLRRTESGPW
B6: ABF3 (AD vector) (protein, UniProt Q9M7Q3 1-454)
chain: MGSRLNFKSFVDGVSEQQPTVGTSLPLTRQNSVFSLTFDEFQNSWGGGIGKDFGSMNMDELLKNIWTAEESHSMMGNNTSYTNISNGNSGNTVINGGGNNIGGLAVGVGGESGGFFTGGSLQRQGSLTLPRTISQKRVDDVWKELMKEDDIGNGVVNGGTSGIPQRQQTLGEMTLEEFLVRAGVVREEPQPVESVTNFNGGFYGFGSNGGLGTASNGFVANQPQDLSGNGVAVRQDLLTAQTQPLQMQQPQMVQQPQMVQQPQQLIQTQERPFPKQTTIAFSNTVDVVNRSQPATQCQEVKPSILGIHNHPMNNNLLQAVDFKTGVTVAAVSPGSQMSPDLTPKSALDASLSPVPYMFGRVRKTGAVLEKVIERRQKRMIKNRESAARSRARKQAYTMELEAEIAQLKELNEELQKKQVEIMEKQKNQLLEPLRQPWGMGCKRQCLRRTLTGPW
B7: ABF4 (AD vector) (protein, UniProt Q9M7Q2 1-431)
chain: MGTHINFNNLGGGGHPGGEGSSNQMKPTGSVMPLARQSSVYSLTFDELQNTLGGPGKDFGSMNMDELLKSIWTAEEAQAMAMTSAPAATAVAQPGAGIPPPGGNLQRQGSLTLPRTISQKTVDEVWKCLITKDGNMEGSSGGGGESNVPPGRQQTLGEMTLEEFLFRAGVVREDNCVQQMGQVNGNNNNGFYGNSTAAGGLGFGFGQPNQNSITFNGTNDSMILNQPPGLGLKMGGTMQQQQQQQQLLQQQQQQMQQLNQPHPQQRLPQTIFPKQANVAFSAPVNITNKGFAGAANNSINNNNGLASYGGTGVTVAATSPGTSSAENNSLSPVPYVLNRGRRSNTGLEKVIERRQRRMIKNRESAARSRARKQAYTLELEAEIEKLKKTNQELQKKQAEMVEMQKNELKETSKRPWGSKRQCLRRTLTGPW

Experiments:
BD-ABI5 (Arabidopsis) = molecular target: T1, BD-ABI5 (Arabidopsis); assay: two-hybrid; ProQuest Two-Hybrid System, AD and BD vectors co-transformed into yeast strain AH109; growth on SD/-Trp-Leu-His with 3'AT
[1] = molecular target: T2, ABI5 fused with the N-terminus of Venus YFP (pDEST-VYNE) (Arabidopsis); assay: split reporter; BiFC with Venus YFP halves in tobacco leaves, Agrobacterium infiltration, confocal microscopy two days after infiltration
[2] = molecular target: T3, ABI5 (endogenous) (Arabidopsis (endogenous in seeds)); assay: co-IP; crude proteins of seeds germinated 24h with 2 uM ABA; anti-ABI5 on Dynabeads Protein G, overnight at 4°C; Co-IP buffer 50mM Tris-Cl pH 8.0, 150mM NaCl, 1mM EDTA, 0.1% Triton X-100; blots with anti-ABI5 and anti-HA
[3] = molecular target: T4, ENAP1 (two-hybrid construct tested against the ABFs, S3 Fig) (Arabidopsis); assay: two-hybrid; ProQuest Two-Hybrid System, AD and BD vectors co-transformed into yeast strain AH109; growth on SD/-Trp-Leu-His with 3'AT

Binder	binding [3]	also measured
B1	–	binding (BD-ABI5 (Arabidopsis)): binds
B2	–	binding [1]: binds
B3	–	binding [2]: binds
B4	no binding	–
B5	no binding	–
B6	no binding	–
B7	no binding	–
